Data published in PMC4336329 (PLoS ONE, 2015).
Screen size: about 310,000 compounds; about 14,000 (4.5%) showed an effect of 50% or more. Effects have a minus sign here. The list shows a part of the results.

biological target: human ether-à-go-go-related gene (hERG) potassium channel (human, UniProt Q12809); assay: primary screen, population patch clamp on CHO cells stably expressing hERG
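Also: peak tail current of the secondary pulse compared with the same well before compound.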

human ether-à-go-go-related gene (hERG) potassium channel, sequence (Q12809 whole entry, looked up): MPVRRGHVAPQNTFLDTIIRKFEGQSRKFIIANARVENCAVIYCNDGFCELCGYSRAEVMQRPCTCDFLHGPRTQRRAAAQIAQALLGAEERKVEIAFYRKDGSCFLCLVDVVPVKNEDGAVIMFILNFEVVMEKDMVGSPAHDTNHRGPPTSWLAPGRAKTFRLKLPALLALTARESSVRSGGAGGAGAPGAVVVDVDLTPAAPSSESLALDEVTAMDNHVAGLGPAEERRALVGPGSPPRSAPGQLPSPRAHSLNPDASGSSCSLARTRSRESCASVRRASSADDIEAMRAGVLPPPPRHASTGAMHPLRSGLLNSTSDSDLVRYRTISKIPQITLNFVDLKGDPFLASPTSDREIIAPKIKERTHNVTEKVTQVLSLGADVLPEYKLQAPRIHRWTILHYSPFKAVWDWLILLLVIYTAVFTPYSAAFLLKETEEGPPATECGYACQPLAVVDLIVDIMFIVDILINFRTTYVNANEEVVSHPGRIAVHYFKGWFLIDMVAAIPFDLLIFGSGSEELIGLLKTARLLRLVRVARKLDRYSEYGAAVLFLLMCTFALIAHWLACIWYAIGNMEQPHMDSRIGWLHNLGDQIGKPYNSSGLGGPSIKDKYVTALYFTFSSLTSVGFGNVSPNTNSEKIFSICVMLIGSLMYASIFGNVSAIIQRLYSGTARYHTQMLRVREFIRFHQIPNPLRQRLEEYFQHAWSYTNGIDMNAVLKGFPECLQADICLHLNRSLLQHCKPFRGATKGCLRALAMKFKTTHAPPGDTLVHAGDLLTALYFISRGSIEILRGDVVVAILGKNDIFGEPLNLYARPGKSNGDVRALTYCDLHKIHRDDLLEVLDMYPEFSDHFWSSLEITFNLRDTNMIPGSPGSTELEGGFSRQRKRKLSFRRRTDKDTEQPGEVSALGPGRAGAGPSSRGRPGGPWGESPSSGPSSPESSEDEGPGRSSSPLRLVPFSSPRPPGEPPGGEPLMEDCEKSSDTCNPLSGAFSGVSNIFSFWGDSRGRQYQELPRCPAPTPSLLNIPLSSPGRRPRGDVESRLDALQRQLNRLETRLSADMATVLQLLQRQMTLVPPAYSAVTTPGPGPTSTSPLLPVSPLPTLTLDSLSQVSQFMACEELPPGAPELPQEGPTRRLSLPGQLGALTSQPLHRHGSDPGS

Structure (SMILES) | hERG current change (%, negative = inhibition) at 10uM [%]
CSc1ccc(/C=N/N(C)S(=O)(=O)c2ccc(C)cc2)cc1 | 11.3
Cc1ccc2nc(SCC(=O)NC3CCCc4ccccc43)[nH]c2c1 (centres unmarked) | 5.68
O=C(COc1ccccc1)Nc1cc(NC(=O)COc2ccccc2)cc(C(=O)O)c1 | 20.9
NC(=O)C1CCN(c2oc(/C=C/c3ccccc3)nc2S(=O)(=O)c2ccccc2)CC1 | -2.67
CCC(C(=O)OC)n1cnc2c(nnn2-c2ccc(F)cc2)c1=O (centres unmarked) | -14.2
CCOC(=O)Cn1nnc2c(sc3nc4c(c(-c5ccccc5)c32)CCC4)c1=O | 13.1
COc1ccc(C/C(N)=N/OC(=O)C(c2ccccc2)c2ccccc2)cc1OC | -14.5
Cc1cc(NC(=O)CCN2C(=O)/C(=C\c3ccccc3)SC2=S)no1 | 4.42
CC1=C/C(=N\OS(=O)(=O)c2ccccc2)C=CC1=O | -1.66
CCC(=O)Nc1sc(Cc2ccc3c(c2)OCO3)c(C)c1C(N)=O | 1.04
O=C1N2CN(C(c3ccccc3)c3ccccc3)CN=C2SC1(CO)CO | 6.01
CC(C)CNC(=S)N(CCN(C)C)Cc1cc2cc3c(cc2[nH]c1=O)OCO3 | 0.354
COC(=O)C1=C(c2ccccc2OCc2ccccc2)C[C@@H]2CC[C@H]1N2C(=O)NCCCOC(C)C | -12.9
O=C(O)C(=O)O.O=S(=O)(c1ccc(Cl)cc1)N1CCN(Cc2ccncc2)CC1 | -51.5
CN1C(=O)N(C)C(NC(=O)Nc2ccccc2)C1NC(=O)Nc1ccccc1 (centres unmarked) | 9.28
OCCOc1ccccc1 | 12.4
CCOC(=O)N1CCN(C(=O)C(CC)c2ccccc2)CC1 (centres unmarked) | 5.57
C=CCNC(=S)/C(=C(/[O-])c1ccc([N+](=O)[O-])cc1)[n+]1ccccc1 | 4.73
COC(=O)c1ccc(-n2nnnc2SCc2nn[nH]n2)cc1 | 16.4

Structure (SMILES) | hERG current change (%, negative = inhibition) at 10uM [%]
Cc1ccc(NC(=O)C2CCN(S(=O)(=O)c3ccc4c(c3)CCCC(=O)N4)CC2)cc1N(C)C | -14.7
Cc1cc(C(=O)N2CCOCC2)ccc1[N+](=O)[O-] | 9.19
COc1cccc(-c2csc(NC(=O)C3CC3)n2)c1 | 8.08
O=C(NNC(=O)C1CC1c1ccccc1)Nc1cccc(Cl)c1 (centres unmarked) | 8.67
CCN1CCN(C(=O)c2ccccc2N(C)S(=O)(=O)c2ccc(C)cc2)CC1 | 2.03
CCc1cccc(OCCCCNCCCOC)c1.O=C(O)C(=O)O | -19.4
CCNC(=S)Nc1ccc(Cl)c(C(F)(F)F)c1 | -17.1
Cc1ccc(S(=O)(=O)N(C)CCCC(=O)Nc2cccc3ccccc23)cc1 | -28.1
Cc1c(C(=O)NCc2ccccn2)oc2ccc(Br)cc12 | -12
O=C(O)c1ccccc1OC(C(=O)Nc1cc(Cl)cc(Cl)c1)c1ccccc1 (centres unmarked) | 13.5
CC(C)NC(=O)CN(C(=O)CCC(=O)Nc1nccs1)c1ccc2c(c1)OCO2 | 7.86
COc1ccc(-n2nnnc2CNC(=O)c2ccc(S(=O)(=O)N3CCOCC3)cc2)cc1 | -11.2
Cc1ccc(/C=N/Nc2cn[nH]c(=O)n2)o1 | -4.58
COc1ccccc1C(=O)NCCC(=O)N(Cc1ccco1)Cc1cccs1 | -21.3
Cc1nc2cc(NC(=O)c3ccc(Cl)cc3)ccc2n1C | -18
CCC(C)(C)NC(=O)CN(C(=O)CCC(=O)Nc1ccccn1)c1ccc2c(c1)OCO2 | -9.65
COc1ccc(C2C3=C(CC(C)(C)CC3=O)Nc3nc(C)nn32)cc1OC (centres unmarked) | 9.84
CCOCCCn1c(SCc2nc3sc(C(=O)O)c(C)c3c(=O)[nH]2)nnc1-c1ccc(Cl)cc1 | 25.3
CC1Cc2cc(S(=O)(=O)NCCc3ccccc3)ccc2N1C(=O)C1CC1 (centres unmarked) | 13.7

Structure (SMILES) | hERG current change (%, negative = inhibition) at 10uM [%]
Cc1ccccc1CN1C(=O)C2(OCCCO2)c2ccccc21 | -10.5
CN(C)c1ccc(C(=O)Nc2ccc(O)c3c(=O)cc(-c4ccccc4Cl)oc23)cc1 | -7.97
CC(C(=O)O)n1cc(Cl)cn1 (centres unmarked) | 8.82
NS(=O)(=O)c1ccc(NC(=O)/C=C/c2ccccc2Cl)cc1 | 9.54
N/C(=N\OC(=O)N1c2ccccc2Sc2ccccc21)c1ccccc1 | 23
CCOc1ccc(NS(=O)(=O)c2ccc3c(c2)CCN3C(=O)CCC(=O)O)cc1 | 11.5
CSc1nc(C)c(CCOCc2ccccc2)c(=O)[nH]1 | 15.7
Cc1ccc(-c2ccccc2)n1-c1cccc(C(=O)O)c1 | 13.8
O=C(C1CC1)N1CCc2cc(S(=O)(=O)NCCCN3CCCCC3)ccc21 | 1.2
NC(=O)CSc1nnc2ccc(-c3ccc(F)cc3)nn12 | 8.58
S=C(NCCc1ccccc1)N/N=C/c1cccs1 | 19.9
Nn1c(SCc2nc3ccccc3[nH]2)nnc1-c1ccccc1 | 2.24
Cc1ccc(Cl)cc1NC(=S)N(CCCN1CCOCC1)Cc1ccco1 | -28.5
CCc1ccc(NC(=O)CSc2nc3ccccc3c(=O)n2CCCC(=O)NCCCN2CCOCC2)cc1 | -66.6
CC(C)Oc1ccc(CN=C(N)N=C(N)N)cc1Cl | 7.53
Nc1nc(SCC(=O)Nc2ccccc2)[nH]c(=O)c1-c1ccccc1 | -0.842
COc1ccc(CCN2CN(S(=O)(=O)c3ccc(OC)cc3)c3nc4ccccc4nc32)cc1 | -16.1
C#Cc1cccc(NC(=O)CSc2nnc(-c3ccc(C(F)(F)F)cn3)o2)c1 | 12.7
